Values marked as one replicate rest on one cluster of the flow cell; about a third of the high ones do not repeat.
The sequences below were run on ATP (assay: switch fluorescence ratio, 500 uM ATP over buffer (Cy3 cluster intensity, sum of 5 cycles each) (fold (ratio)); higher = stronger signal-on switching upon ATP binding; sequences stand for … in TCGTCGGCAGCGTCAGATGTGTATAAGAGACAGTTTTTTTTTTTTTTTTTTTTTTTTT…TC). Settings: aptamer strand: ATP DNA aptamer (quencher-CACCTGGGGGAGTATTGCGGAGGAAGG + anchor), 100 nM annealed; ATP concentration: 500 uM; one replicate.
Procedure, shortened: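 Clusters carrying Cy3-labelled switching strands on a modified Illumina MiSeq flow-cell were annealed to 100 nM quencher-labelled ATP aptamer and imaged in selection buffer. They were imaged again after 15 min with 500 uM ATP at 22 °C, over five buffer/ATP cycles with NaOH stripping and re-annealing in between. For each cluster, the fluorescence ratio is the summed Cy3 intensity of the target cycles divided by that of the buffer cycles, averaged per switch-domain sequence. Clusters outside 100-1000 RFU were left out.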
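Also: ATP exposure 15 min at 22 °C before imaging.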

Sequence | switch fluorescence ratio
TCCTAGTCGC | 1.12
GACCTGCTGT | 1
TTTTGATAGC | 0.996
CGGTTTAGTG | 0.955
TTAGGTCCCA | 1.01
TACTTCCGTC | 1.16
TCGGTGACCC | 0.974
TAACCTGTTA | 0.993
CGTGTTCCA | 1.02
GCGAGACTAG | 1.2
ATCGGATAGA | 1.01
TCTACAGTAA | 1.2
ATAAGTAATC | 1.78
CGTAGTCGCC | 0.982
TGTAGTACT | 1.03
AGTGAAATG | 1.03
TCTCATTCA | 0.99
TAGCTGAAGC | 0.995
GTAGGGTTGT | 0.987
GTTTGAAAAT | 0.971
GCTTTGTGAA | 0.999
CCTAACGGGT | 1.02
CTGTGCATAG | 1.31
AAGAATACCG | 0.99
GATTTACAT | 1.02
GCCGCCGCCC | 1.24

Sequence | switch fluorescence ratio
TCTGGGAACT | 0.998
CACCACTATC | 1.14
AATGCCAGAA | 0.944
AAACAACGGA | 1.03
TTAAATTT | 0.979
AGATCTAGAC | 1.06
TTTCGTGCTG | 1.09
GCCCAGGGAC | 2.27
CCAATTGTG | 0.959
AATGTTTAGT | 1.01
GCATACCAAC | 1.13
CATATACCGT | 1.03
TGACTGTGAT | 1.02
GGGCGCCGAG | 0.979
TCGGGACGCA | 1.05
AGGAGTGGAA | 0.955
TGCAACGACT | 1.06
GCACGCGCCG | 1.1
AGATGCCGCT | 0.966
GGTGTAGGAA | 1.03
ACGCGTCTCT | 1.01
TATGAGGTCG | 0.942
TCTAGTTATT | 1.05
CTGGAAATTA | 1.02
GTAATGGACG | 0.977
GGATTGGTA | 1.03

Sequence | switch fluorescence ratio
ATCAAACTGG | 1.01
CTAGTGGACC | 0.999
CAAACAGAAA | 1.01
CGGCTCGAAG | 1.69
AGGGATATAA | 1.04
GGCGGCGATG | 1.04
TCGAGAGATT | 0.973
GCCCGATTAA | 1.03
GCGGCACTCC | 2.65
AGCCCTGCTA | 1.01
CTGCCAAACT | 1.1
ATTAGTGCA | 0.995
AATGAAACCG | 1.13
CACAATAGAA | 1.02
AGCGCGAAAG | 0.954
TAGTACCCGC | 1.16
TAATTTCATC | 0.985
GAGAGTCCGG | 1.03
GTTTATAAGC | 0.993
CTCTCGACGG | 1.03
ACATGATCTT | 0.985
CAGTCTATGT | 0.993
CTAAGCCAGA | 1.06
ACCTTTGTT | 0.999
TGCTTCCACT | 1.02
CAAATATTGG | 1.01

Sequence | switch fluorescence ratio
TCGAATGTC | 1.02
ACTAGGGGTC | 0.946
AGTAGTGGCC | 1.07
ATTTCGCTTA | 0.967
TTTATAGAC | 0.979
TTTTTTCTCA | 0.985
TTCCGGCG | 1.02
ACTGGCCATC | 0.999
AGGTAGTGCT | 1.02
AGACTCATAG | 1.01
CGCCCCTCGT | 1.12
TTCTTAGTAC | 1
CACTCTCACT | 1.1
GTTTCGTGTC | 1.02
TGAAAA | 0.92
GGGCACAGAG | 1
GGGGGCCGAC | 1.01
ATTTTCAAGC | 0.945
AGTGTACGGT | 1.04
TCTGTTGGTA | 0.952
CGGGCCAACG | 0.948
CGAAGGGTTG | 0.964
ACATATCTTA | 1.02
ATTTAGGAAA | 1
TGGTGTAGTG | 1.01
GCTCCACGTC | 1.19

Sequence | switch fluorescence ratio
TCACGGAGTG | 1.01
CTAACGGCGG | 1.02
AATAAACCCC | 1.14
TGCATGAATA | 0.954
AGATTGCTGC | 1.03
AAAGACTTT | 1.02
GACCTCATC | 1.01
TCAGGGCGGA | 0.971
AGAGAGTACC | 0.989
ACTAATTTAC | 1.15
ATCGGCGATA | 1.01
TAAGTCCGGC | 0.946
AGGCGGCTCG | 0.981
AATGGGCTCG | 1.02
GAGATATCAA | 0.961
TCCTTCCG | 2.39
CACTGTGGAG | 1.03
TAATTGTCA | 0.977
TAGCGCTGTA | 0.95
GACGGGTCGA | 1.02
GGCGGGGTCA | 1.02
TTGATTGGT | 0.996
TCCTCGCCCT | 2
ACTCGGATGT | 1.08
CGCTGGACGT | 1.01
CTAGGTGTGC | 1.04

Sequence | switch fluorescence ratio
GCCGTAGGGG | 1.03
ATCGAGGCTG | 1.22
TACAGGATCA | 1.03
AAGAGGAATA | 0.949
TAGCTCTATT | 0.981
CTGCGAAATA | 1.39
ACACTTTGGA | 0.997
GTCTAATCCA | 1.02
TGAGCCCTGT | 0.977
GAAAGGATAG | 1.05
TGCGGGGAG | 0.973
GCAGCGCTGC | 1.04
AAGTACGGTT | 1.29
TCACGACGTT | 1.01
ACAAGGATAT | 1.04
ATGGTGATTG | 0.945
TGGTCATG | 0.926
GCGGTCAAAA | 0.91
AAATCACCCA | 1.03
AGCGGCCAAT | 1.04
TTTCACCAGG | 2.99
TGTTTATAAC | 0.965
AAGGTGTGAG | 0.971
ATCCGGTGGC | 1.06
TAATCGCTTT | 0.952
TTCTTCCGAC | 4.39

Sequence | switch fluorescence ratio
GGATCAGCGA | 0.828
ATTCTGAGCC | 1.07
CGTAATCGTA | 1.02
CGTATATTCG | 1.07
GGGAACGTCA | 1.01
TAGCGCAGCC | 0.992
TCCGAAGTTT | 2.1
GCTAGCGTAC | 1.56
AGCATTCGA | 1.1
GATCGAGATG | 1.06
GGGTCTTCAA | 1.02
TTAGACCTTG | 0.97
TACTCTCGTG | 1.03
AAAGTTTATT | 1.03
GCGAGCTACT | 1.06
CATGAGTTC | 0.97
TTGACGATTG | 0.988
ACTTCCTAGG | 1.89
ATTAAGAAGA | 1.04
ATCATACCTA | 1.04
GTTATAAACA | 0.989
TATCACGTTT | 1.02
GGTCATTAGG | 0.989
TTAGGTTTCA | 0.969
TTTGCCTAAG | 1.03
GGGCAGAACG | 0.986

Sequence | switch fluorescence ratio
CTTATACGAC | 1.29
AGCACAGATT | 1.01
AGGAAAACTT | 1.07
ATTAGACCGA | 1.02
CCGATGCTCG | 1.19
GTTACCCCAA | 1.12
ACTTCTTGAC | 1.09
GGGGTGATAC | 1.13
TCTTAGTAAG | 0.997
AGAGTTTAA | 1.05
GATATTTTCC | 1.04
CTGGCCTAAG | 1.01
TTATCGGACA | 1.01
AGGGCACGAA | 1.01
ATCCTGCGTT | 1.05
ATCCTTCTGC | 0.999
TGTTTGCTCC | 1.01
CCGTCTGAAG | 1.05
TGTTCCTTTG | 1.03
